This experiment addresses Recombinant human cathepsin S (CatS) (Homo sapiens, UniProt P25774). The experiment can be described thus: biochemical.

pIC50: −log10 of the molar value.

What is called pIC50 is the negative decadic logarithm of the IC50, by convention in mol/L.

Turning to `CS(=O)(=O)N1CCc2c(c(-c3ccc(C(F)(F)F)cc3)nn2CC(O)CN2CCC(c3c[nH]c4cc(N5CCOCC5)ncc34)CC2)C1` (stereo not shown) [Example 9, 1-[5-Methanesulfonyl-3-(4-trifluoromethyl-phenyl)-4,5,6,7-tetrahydro-pyrazolo[4,3-c]pyridin-1-yl]-3-[4-(6-morpholin-4-yl-1H-pyrrolo[3,2-c]pyridin-3-yl)-piperidin-1-yl]-propan-2-ol], the pIC50 is 7.70.

(Values after patent publication US6579896B2, “Method for treating allergies using substituted pyrazoles” (Ortho-McNeil Pharmaceutical, Inc., priority 2000, dated 2003).)
